In PubChem BioAssay AID1345082 (National Center for Advancing Translational Sciences (NCATS), 2018):
In all, about 94,000 compounds went through this assay and about 4,000 (4.3%) were called active. Inconclusive results, whose numbers are uncertain, are shown with a selection of clear calls. Calls come from the whole dose curve; as a rule, active = well fitted inhibition curve with a large enough effect; inconclusive = small, poorly fitted or top-dose-only effect; inactive = no such curve, though single readings can be large or run the other way. A potency beside an inconclusive call is a rough fit, not a confirmed value.

Experiment: Cytotoxic Profiling in NIH 3T3 Cell Line of Diverse Libraries Using Quantitative High-Throughput Screening; note: nearly all actives have a fitted effect of over 55% in size
Conditions: NIH 3T3 viability, CellTiter-Glo ATP luminescence, 48-72 h; activity change, negative = cytotoxicity: at 96.7 µM (top of the series) unless noted; series mostly up to 96.7 µM
In short: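 NIH 3T3 cells at 400 cells/well received 23 nL of compound by pintool and were incubated 48 or 72 h at 37 °C. Viability was read as ATP-coupled CellTiter-Glo luminescence.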
% is set by controls: 0 for no effect and ±100 for the full control effect; potency is the fitted concentration of half-maximal effect; tags give direction and shape of the fitted curve.

Row | SMILES | Potency | activity change, negative = cytotoxicity | outcome
1 | COc1cc(F)ccc1-c1cn(C)c(=O)n2cc(CN3CCNC(=O)C3)nc12 | inconclusive: 79.4 µM [inhibitor, partial curve, poor fit] | – | –
2 | COCCN1C(=O)c2ccccc2C(C(=O)NCc2ccccc2F)C12CCCCC2 (configuration not stated) | inconclusive: 70.8 µM [inhibitor, partial curve, poor fit] | – | –
3 | O=C(Nc1ccc2n(c1=O)C[C@H]1C[C@@H]2CN(C(=O)Nc2ccc(F)cc2)C1)c1ccccc1 | active: 22.4 µM | – | –
4 | Nc1cccn2nc(-c3ccccc3)nc12 | inconclusive: 50.1 µM [inhibitor, partial curve, poor fit] | – | –
5 | COc1ccc(NC(=O)c2ccc3c(c2)C(O)CCCCCN3C)cn1 (configuration not stated) | inconclusive: 44.7 µM [inhibitor, partial curve, poor fit] | – | –
6 | CC(=O)c1cccc(NC(=O)CN2C(=O)NC3(CCC(C(C)(C)C)CC3)C2=O)c1 (configuration not stated) | active: 39.8 µM | – | –
7 | Cc1cn2nc(C(=O)N3CCN(c4ccccc4)CC3)cc2c(N(C)Cc2ccccc2)n1 | inconclusive: 44.7 µM [inhibitor, partial curve, poor fit] | – | –
8 | O=C(NCc1ccccc1)c1cc2n(n1)CC(c1ccc(Cl)cc1)OC2 (configuration not stated) | inconclusive: 44.7 µM [inhibitor, partial curve, poor fit] | – | –
9 | CN1c2cc(C(=O)Nc3ccc(C(F)(F)F)cc3)ccc2C(=O)N2CCCCC21 (configuration not stated) | – | inactive: -26.8% | –
10 | Cc1nc(-c2ccc(F)cc2)n(Cc2ccc(F)cc2)c(=O)c1CCO | inconclusive: 50.1 µM [inhibitor, partial curve, poor fit] | – | –
11 | CNC(=O)CN1CCCC(N2CCN(c3ccccc3F)CC2)C1 (configuration not stated) | – | inactive: -20.1% | –
12 | CCN(CC)C(=O)c1coc(COc2ccc3c(c2)C(c2ccc(C)cc2)N(C(=O)C2CC2)CC3)n1 (configuration not stated) | inconclusive: 28.2 µM [inhibitor, partial curve] | – | –
13 | Cc1nc2cnccn2c1C(=O)NCc1ccc2c(c1)OCO2 | inconclusive: 89.1 µM [inhibitor, partial curve, poor fit] | – | –
14 | CCOC(=O)C1CCN(C(=O)c2cn3cc(-c4ccccc4)sc3n2)CC1 | – | inactive: -27.4% | –
15 | Cc1cc(F)ccc1-c1[nH]nc2ncc(-c3cn[nH]c3)nc12 | inconclusive: 100 µM [inhibitor, partial curve, poor fit] | – | –
16 | OC[C@H]1CN(Cc2ccc(-n3ccnc3)cc2)C[C@H]1CN1CCCCC1 | inconclusive: 63.1 µM [inhibitor, partial curve, poor fit] | – | –
17 | CCOC(=O)C1(Cc2ccc(F)cc2F)CCCN(S(=O)(=O)c2c(C)noc2C)C1 (configuration not stated) | inconclusive: 79.4 µM [inhibitor, single point] | – | –
18 | CN(C)C(=O)C1CCN(c2nccc(Nc3ccccc3F)n2)CC1 | inconclusive: 50.1 µM [inhibitor, partial curve, poor fit] | – | –
19 | CC(C)(C)C(=O)N1CCC(c2nn(-c3ccc(F)cc3)c(=O)[nH]2)CC1 | inconclusive: 39.8 µM [inhibitor, partial curve, poor fit] | – | –
20 | CCC(=O)N1Cc2ccccc2CC2(CCCN(Cc3ccccn3)C2)C1 (configuration not stated) | – | – | inactive
21 | COc1nccc(N2CCC(CC(=O)NCc3ccc(F)cc3Cl)CC2)n1 | inconclusive: 25.1 µM [inhibitor, partial curve, poor fit] | – | –

Row | SMILES | Potency | activity change, negative = cytotoxicity | outcome
22 | CC1(C)C(=O)N(Cc2ccccc2)[C@H]2CN(CC3CCOCC3)C[C@H]2[S+]1(=O)[O-] | inconclusive: 79.4 µM [inhibitor, partial curve, poor fit] | – | –
23 | Cc1cnc(C2CC2)n1CC1CCN(C(=O)C2CC2)CC1 | – | – | inactive
24 | COc1ccc(C(CC(=O)NCc2cccnc2)c2ccccc2)cc1 (configuration not stated) | inconclusive: 20 µM [inhibitor, partial curve, poor fit] | – | –
25 | COc1ccc(/C=C/c2ccc3c(c2)C(=O)N2CC[C@H](NC(=O)COCC(=O)O)[C@H]2C(=O)N3)cc1 | inconclusive: 89.1 µM [inhibitor, single point] | – | –
26 | Cc1ccccc1OCC1CN(CC(C)C)C(=O)c2c(ccnc2-c2ccc(OCC(=O)O)cc2)O1 (configuration not stated) | inconclusive: 70.8 µM [inhibitor, single point] | – | –
27 | COc1ccccc1Nc1ccnc(N2CCC(NC(=O)c3ccccc3Cl)CC2)n1 | inconclusive: 50.1 µM [inhibitor, partial curve, poor fit] | – | –
28 | Cn1nc(C2CCCC2)cc1NC(=O)c1cccc(Br)c1 | inconclusive: 50.1 µM [inhibitor, partial curve, poor fit] | – | –
29 | O=C1Nc2ccc(-c3ccc(Cl)cc3)cc2C(=O)N2CCN(C(=O)c3cccs3)C[C@H]12 | inconclusive: 44.7 µM [inhibitor, partial curve, poor fit] | – | –
30 | CCC(c1ccccc1)N1Cc2cc(NS(=O)(=O)c3ccc(Cl)cc3)ccc2OC(C)C1=O (configuration not stated) | inconclusive: 25.1 µM [inhibitor, full curve] | – | –
31 | Cc1cc2nc3n(c(=O)c2n1CC(=O)N1CCN(c2ccc(F)cc2)CC1)CCCCC3 | inconclusive: 17.8 µM [inhibitor, full curve, poor fit] | – | –
32 | Cc1nccn1CCN(C)c1ccc(-c2nc(COc3ccccc3)no2)cn1 | inconclusive: 50.1 µM [inhibitor, partial curve, poor fit] | – | –
33 | Cc1ccc(Nc2ccnc(N3CCC(C(=O)NCC4CC4)CC3)n2)cc1 | active: 31.6 µM | – | –
34 | Cc1ccc(CNC(=O)c2ccc3c(c2)CN(CC2=Cc4ccccc4OC2)CCO3)cc1 | inconclusive: 31.6 µM [inhibitor, full curve] | – | –
35 | COCc1ccc(CN[C@H]2C[C@@H](Cc3cc(CN4CCCCC4)on3)C2(C)C)o1 | inconclusive: 100 µM [inhibitor, partial curve] | – | –
36 | CC(=O)N[C@H]1CN(S(=O)(=O)c2ccc(C)c(F)c2)C[C@@H]1C(C)C | – | inactive: -24.4% | –
37 | O=C(NC1CCCCC1)c1nc2cccnc2n(CCc2ccccc2)c1=O | – | inactive: -24.7% | –
38 | Cc1cc(Cn2cc3c4c(cccc42)[C@H](CC(C)C)N[C@H](C(=O)NCc2ccco2)C3)no1 | active: 28.2 µM | – | –
39 | COc1ccc(-c2cc(N3CCCC(NC(=O)c4cccc(OC)c4)C3)n[nH]2)cc1 (configuration not stated) | inconclusive: 39.8 µM [inhibitor, partial curve] | – | –
40 | O=C(NCC1CCN(Cc2cccc(F)c2)CC1)[C@@H]1COCC(=O)N1Cc1ccccc1 | – | inactive: -5% | –
41 | COc1cccc(-c2c(C(=O)NCC(C)C)nc3sccn23)c1 | – | inactive: -21.7% [at 138 µM] | –
42 | CNC(=O)c1cc(C)nc2onc(C3CCCN3C(=O)c3cccc(Cl)c3)c12 (configuration not stated) | – | inactive: -23.8% | –

Row | SMILES | Potency | activity change, negative = cytotoxicity | outcome
43 | Cc1nn(-c2ccccc2)c2c1C(C(C)C)N(C1CCN(C(=O)C3CCCC3)CC1)C2=O (configuration not stated) | inconclusive: 56.2 µM [inhibitor, partial curve, poor fit] | – | –
44 | COCC(=O)NC1CCC12CCN(Cc1ccccn1)CC2 (configuration not stated) | – | inactive: -18% | –
45 | Cc1ccc(C)c(NC(=O)N2C[C@@H](F)C[C@H]2C(=O)N2CCCCC2)c1 | inconclusive: 50.1 µM [inhibitor, partial curve, poor fit] | – | –
46 | O=C(c1ccc(F)cc1)N1CCC2(CC1)CC(N(Cc1ccccc1)C1CC1)CCO2 (configuration not stated) | inconclusive: 44.7 µM [inhibitor, partial curve, poor fit] | – | –
47 | CN(Cc1ccccc1)[C@@H]1C[C@@H]2CO[C@H](c3ccccc3)C[C@@H]2C1 | – | inactive: -38.2% | –
48 | CCc1ccc(C(=O)N2CCCN(c3nnc4ccccn34)CC2)cc1 | – | inactive: -18.6% | –
49 | COc1ccc(-c2cc(N3CCN(C(=O)c4ccc(OC)c(F)c4)CC3)n[nH]2)cc1 | inconclusive: 10 µM [inhibitor, full curve, poor fit] | – | –
50 | C#CCNC(=O)C1CCCN1Cc1ccc(-c2cc(C)cc(C)c2)cc1 (configuration not stated) | inconclusive: 50.1 µM [inhibitor, partial curve, poor fit] | – | –
51 | CC(C)C[C@@H]1N[C@H](C(=O)N2CCN(C)CC2)Cc2cn(Cc3cccnc3)c3cccc1c23 | – | inactive: -8.89% | –
52 | CCOc1cccc(-c2nc(C(=O)NCc3ccc4c(c3)OCO4)cs2)c1 | inconclusive: 50.1 µM [inhibitor, partial curve, poor fit] | – | –
53 | CN(C)C(=O)c1ccc(OC2CCN(C(=O)c3cccs3)CC2)nc1 | – | inactive: -33.4% | –
54 | O=C(NCCc1ccc(Cl)cc1)c1ccc2nnc(-c3ccc(F)cc3)n2c1 | inconclusive: 50.1 µM [inhibitor, partial curve, poor fit] | – | –
55 | Cc1ccc(C(=O)NC2CCN(C(=O)c3ccc(-c4cncnc4)cc3)CC2)cc1 | – | inactive: -28.4% | –
56 | C#CCNC(=O)c1cc(-c2ccsc2)c2nncn2n1 | inconclusive: 89.1 µM [inhibitor, partial curve] | – | –
57 | Cc1ccc(-c2noc([C@@H]3CCCN3C(=O)Cc3ccccc3)n2)cc1 | inconclusive: 70.8 µM [inhibitor, single point] | – | –
58 | Cc1ncc2n1C(=O)N(C1CCN(Cc3ccc(OC(F)(F)F)cc3)CC1)C2 | inconclusive: 44.7 µM [inhibitor, partial curve, poor fit] | – | –
59 | CCC(CC)C(=O)NC[C@@H]1C=C(C)[C@H](Cc2nc3ccc(OC)cc3[nH]2)C[C@H]1C(C)C | inconclusive: 39.8 µM [inhibitor, full curve] | – | –
60 | COc1ccc(CN2C=C(C(=O)OCc3noc(-c4ccc(C#N)cc4)n3)C(C)=NS2(=O)=O)cc1 | inconclusive: 7.94 µM [inhibitor, full curve] | – | –
61 | Cc1nc(N2CCC(NC(=O)Cc3ccc(F)cc3)CC2)cc(C(F)(F)F)n1 | inconclusive: 44.7 µM [inhibitor, partial curve, poor fit] | – | –
62 | CCOC(=O)C1(Cc2cccc(OC)c2)CCCN(C(=O)COc2ccccc2)C1 (configuration not stated) | – | inactive: -13.4% | –
